These are yes or no findings as the source states them, for the method shown. In cells and extracts the contact can be indirect. Some results given as binding are weak or reduced against the parent protein; the word gives no strength. Tags and fused reporters may be left off the sequences shown.
T1: bGST-Amphiphysin I (1-278) (UniProt P49418)
T1 sequence: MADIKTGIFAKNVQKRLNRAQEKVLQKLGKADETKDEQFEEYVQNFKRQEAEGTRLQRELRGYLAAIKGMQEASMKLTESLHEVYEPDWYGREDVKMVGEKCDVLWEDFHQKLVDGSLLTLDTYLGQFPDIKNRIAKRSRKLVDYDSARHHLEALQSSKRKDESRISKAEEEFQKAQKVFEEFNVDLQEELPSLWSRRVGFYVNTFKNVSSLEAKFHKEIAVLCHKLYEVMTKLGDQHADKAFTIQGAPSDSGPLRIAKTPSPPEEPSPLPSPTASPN

The chains behind the UniProt entries cited, without tags or fusion partners.
UniProt Q15078: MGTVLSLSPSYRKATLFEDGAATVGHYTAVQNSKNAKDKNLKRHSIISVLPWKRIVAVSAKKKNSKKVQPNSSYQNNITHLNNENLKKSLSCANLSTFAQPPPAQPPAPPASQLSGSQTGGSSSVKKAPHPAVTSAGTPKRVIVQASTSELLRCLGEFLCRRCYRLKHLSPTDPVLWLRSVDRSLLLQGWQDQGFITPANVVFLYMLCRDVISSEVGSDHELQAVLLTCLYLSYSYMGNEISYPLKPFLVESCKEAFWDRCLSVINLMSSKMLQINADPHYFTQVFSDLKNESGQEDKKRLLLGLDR
UniProt O08539: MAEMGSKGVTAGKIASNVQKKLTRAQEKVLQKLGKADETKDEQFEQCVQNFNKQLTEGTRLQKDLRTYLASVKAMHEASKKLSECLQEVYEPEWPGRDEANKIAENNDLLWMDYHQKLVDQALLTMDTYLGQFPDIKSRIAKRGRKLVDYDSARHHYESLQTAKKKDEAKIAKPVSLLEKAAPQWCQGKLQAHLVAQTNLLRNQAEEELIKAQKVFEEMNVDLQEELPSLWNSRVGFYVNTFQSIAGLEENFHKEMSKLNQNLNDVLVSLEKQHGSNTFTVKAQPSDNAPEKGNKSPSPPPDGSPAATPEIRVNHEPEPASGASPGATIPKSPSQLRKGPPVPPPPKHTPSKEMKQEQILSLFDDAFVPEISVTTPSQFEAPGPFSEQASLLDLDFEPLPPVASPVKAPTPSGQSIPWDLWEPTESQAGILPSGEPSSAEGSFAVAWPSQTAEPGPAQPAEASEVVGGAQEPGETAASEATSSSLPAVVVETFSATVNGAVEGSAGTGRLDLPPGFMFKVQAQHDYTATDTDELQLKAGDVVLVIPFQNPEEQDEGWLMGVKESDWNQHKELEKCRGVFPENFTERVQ

T2: bGST-Amphiphysin I (279-695) (UniProt P49418)
T2 sequence: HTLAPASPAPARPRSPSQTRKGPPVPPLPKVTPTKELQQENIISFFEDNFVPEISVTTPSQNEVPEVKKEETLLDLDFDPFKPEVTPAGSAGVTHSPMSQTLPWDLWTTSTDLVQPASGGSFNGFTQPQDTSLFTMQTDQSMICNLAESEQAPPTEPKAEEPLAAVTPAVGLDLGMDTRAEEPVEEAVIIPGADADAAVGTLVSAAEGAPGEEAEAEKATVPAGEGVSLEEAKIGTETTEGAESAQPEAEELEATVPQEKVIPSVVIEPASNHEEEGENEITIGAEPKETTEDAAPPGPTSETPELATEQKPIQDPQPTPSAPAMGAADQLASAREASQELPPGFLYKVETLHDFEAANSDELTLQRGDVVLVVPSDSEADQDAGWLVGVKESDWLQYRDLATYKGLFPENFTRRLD

T3: bGST-Amphiphysin I-FL (UniProt P49418)
T3 sequence: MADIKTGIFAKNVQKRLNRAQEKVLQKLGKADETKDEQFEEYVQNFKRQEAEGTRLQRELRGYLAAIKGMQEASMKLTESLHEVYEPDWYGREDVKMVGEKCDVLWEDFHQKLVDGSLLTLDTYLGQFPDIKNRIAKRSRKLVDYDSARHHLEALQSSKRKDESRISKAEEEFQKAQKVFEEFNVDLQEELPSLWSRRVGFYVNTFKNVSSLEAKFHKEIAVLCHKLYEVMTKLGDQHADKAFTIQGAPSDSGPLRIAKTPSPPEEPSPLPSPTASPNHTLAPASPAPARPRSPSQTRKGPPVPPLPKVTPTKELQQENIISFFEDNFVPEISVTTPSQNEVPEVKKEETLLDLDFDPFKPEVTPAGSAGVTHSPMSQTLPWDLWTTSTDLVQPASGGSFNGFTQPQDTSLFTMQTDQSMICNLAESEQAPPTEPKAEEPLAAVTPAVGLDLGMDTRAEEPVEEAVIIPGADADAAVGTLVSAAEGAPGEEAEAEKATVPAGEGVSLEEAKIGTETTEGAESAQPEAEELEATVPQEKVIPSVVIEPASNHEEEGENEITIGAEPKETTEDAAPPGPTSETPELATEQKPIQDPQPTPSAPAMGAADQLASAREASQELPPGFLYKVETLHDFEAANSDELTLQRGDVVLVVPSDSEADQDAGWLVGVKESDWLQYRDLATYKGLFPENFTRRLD


Assays:
[1] = biological target: T1, bGST-Amphiphysin I (1-278); test: pull-down; GST fusions of Amphiphysin I bound to glutathione agarose beads, incubated with mouse brain lysate overnight; beads washed three times with PBST; bound proteins detected by Western blot; only the target purified
[2] = biological target: T2, bGST-Amphiphysin I (279-695); test: as above
bGST-Amphiphysin I-FL = biological target: T3, bGST-Amphiphysin I-FL; test: as above
Flag-His-p35 = Flag-His-p35 (UniProt Q15078); test: pull-down; His pull-down on Ni-NTA agarose; results: HEK293 cells co-transfected with His-p35, EGFP-Tau and GST-Amphiphysin I fragments; methods: Flag-His-p35 beads incubated overnight with lysates of transfected HEK293 cells; Western blot

| Molecule | binding [1] | binding [2] | binding (bGST-Amphiphysin I-FL) | binding (Flag-His-p35) |
| --- | --- | --- | --- | --- |
| Amphiphysin II (from UniProt O08539 1-588) | binds | no binding | binds |  |
| Dynamin I (protein, UniProt P39053 1-867) MGNRGMEDLIPLVNRLQDAFSAIGQNADLDLPQIAVVGGQSAGKSSVLENFVGRDFLPRGSGIVTRRPLVLQLVNSTTEYAEFLHCKGKKFTDFEEVRLEIEAETDRVTGTNKGISPVPINLRVYSPHVLNLTLVDLPGMTKVPVGDQPPDIEFQIRDMLMQFVTKENCLILAVSPANSDLANSDALKIAKEVDPQGQRTIGVITKLDLMDEGTDARDVLENKLLPLRRGYIGVVNRSQKDIDGKKDITAALAAERKFFLSHPSYRHLADRMGTPYLQKVLNQQLTNHIRDTLPGLRNKLQSQLLSIEKEVDEYKNFRPDDPARKTKALLQMVQQFAVDFEKRIEGSGDQIDTYELSGGARINRIFHERFPFELVKMEFDEKELRREISYAIKNIHGIRTGLFTPDMAFETIVKKQVKKIREPCLKCVDMVISELISTVRQCTKKLQQYPRLREEMERIVTTHIREREGRTKEQVMLLIDIELAYMNTNHEDFIGFANAQQRSNQMNKKKTSGNQDEILVIRKGWLTINNIGIMKGGSKEYWFVLTAENLSWYKDDEEKEKKYMLSVDNLKLRDVEKGFMSSKHIFALFNTEQRNVYKDYRQLELACETQEEVDSWKASFLRAGVYPERVGDKEKASETEENGSDSFMHSMDPQLERQVETIRNLVDSYMAIVNKTVRDLMPKTIMHLMINNTKEFIFSELLANLYSCGDQNTLMEESAEQAQRRDEMLRMYHALKEALSIIGDINTTTVSTPMPPPVDDSWLQVQSVPAGRRSPTSSPTPQRRAPAVPPARPGSRGPAPGPPPAGSALGGAPPVPSRPGASPDPFGPPPQVPSRPNRAPPGVPSLGAWRLNSPQGKHENRAGKARL | no binding | binds | binds |  |
| GST-Amphiphysin I (1-278), expressed in HEK293 (domain or fragment, UniProt P49418 1-278) MADIKTGIFAKNVQKRLNRAQEKVLQKLGKADETKDEQFEEYVQNFKRQEAEGTRLQRELRGYLAAIKGMQEASMKLTESLHEVYEPDWYGREDVKMVGEKCDVLWEDFHQKLVDGSLLTLDTYLGQFPDIKNRIAKRSRKLVDYDSARHHLEALQSSKRKDESRISKAEEEFQKAQKVFEEFNVDLQEELPSLWSRRVGFYVNTFKNVSSLEAKFHKEIAVLCHKLYEVMTKLGDQHADKAFTIQGAPSDSGPLRIAKTPSPPEEPSPLPSPTASPN |  |  |  | binds |

Reference: article PMC8139826
